The experiment concerns the target Human SPT6 NTD joined to the CTR by a 3x GSA linker, as used for ITC (human, lambda phosphatase-treated. Limits come from the primers: NTD ends LESSHLT, CTR starts PGITPS and ends at the C-terminus). As to the kind of experiment: ITC; U1A in the syringe (150-550 μM), SPT6 construct in the cell (10-35 μM); 25 °C; SEC300 Buffer (20 mM HEPES-NaOH pH 7.5, 300 mM NaCl); one set of binding sites model. As to conditions: both partners purified. On the technique in general: In ITC the heat of successive injections is recorded.

The Kd is the free concentration of one partner at which half of the binding sites on the other are occupied at equilibrium, for simple one-to-one binding. A lower Kd goes with higher affinity.

B1: Human U1A (natural protein)
chain: not shown
notes: human U1A, amplified from human cDNA with primers from the start codon (MAVPET) to the stop codon (ISFAKK); source: E. coli BL21 (DE3) RIL, purified (HisTrap, amylose, TEV, heparin, Superdex 75); not shown: His6, N-terminal, cleaved; MBP, N-terminal, cleaved
Take B1: the equilibrium dissociation constant (Kd) is 1340 nM.

The record behind these values is publication PMC12216098, “Structure of a transcribing Pol II-DSIF-SPT6-U1 snRNP complex” (Nature Communications, 2025).
